# Test results taken from PubChem BioAssay (Tox21).
# Where “and” joins values, the source holds several entries; their conditions need not be identical. Equal values may be shown once. Inconclusive means that the source gave no clear call. Such entries were picked first, then a sample of the others. For part of these data: Where the call is inconclusive, the potency comes from a doubtful curve fit. More than one record can exist for a structure, and the calls need not agree. Calls of active or inactive are those of the source. Unless noted, calls come from the whole dose curve; as a rule, active = well fitted curve in the direction sought with a large enough effect in the repeat runs; inconclusive = weak or mixed curves; inactive = no such curve, though single readings can be large; an effect the other way counts as inactive or inconclusive.
# Legend:
# [1] = qHTS assay to identify small molecule antagonists of the peroxisome proliferator-activated receptor gamma (PPARg) signaling pathway - cell viability counter screen (AID 743194); settings: PPARg-bla HEK293H viability, CellTiter-Glo luminescence, 17 h, co-treated with 50 nM rosiglitazone; activity change, negative = cytotoxicity: at 62.6 µM (top of the series) unless noted; note: potency is the fitted concentration of half-maximal effect; nearly all actives have a fitted effect of over 55% in size
# Procedure, shortened: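 Viability was measured as CellTiter-Glo luminescence in GeneBLAzer PPARg UAS-bla HEK293H cells. These cells had been exposed 17 h at 37 C to compounds together with rosiglitazone at 50 nM final, with the beta-lactamase readout taken in the same wells.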
# [2] = qHTS assay to identify small molecule agonists of the peroxisome proliferator-activated receptor delta (PPARd) signaling pathway - cell viability counter screen (AID 743211); settings: PPARd-bla HEK293H viability, CellTiter-Glo luminescence, 17 h; activity change, negative = cytotoxicity: at 62.6 µM (top of the series); note: potency is the fitted concentration of half-maximal effect; nearly all actives have a fitted effect of over 55% in size
# Procedure, shortened: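 Viability was measured as CellTiter-Glo luminescence (30 min, room temperature) in the same wells as the beta-lactamase readout. GeneBLAzer PPARd UAS-bla HEK293H cells received compound after 5 h plating and were incubated 17 h at 37 C.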
# [3] = qHTS assay to identify small molecule antagonists of the peroxisome proliferator-activated receptor delta (PPARd) signaling pathway - cell viability counter screen (AID 743213); settings: PPARd-bla HEK293H viability, CellTiter-Glo luminescence, 17 h; viability change, negative = cytotoxic: at 62 µM (top of the series) unless noted; note: potency is the fitted concentration of half-maximal effect; nearly all actives have a fitted effect of over 50% in size
# Procedure, shortened: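 HEK293H cells with the PPARd UAS-bla reporter, co-treated 17 h at 37 C with compounds and L165041 (300 nM final), were lysed with CellTiter-Glo. Luminescence indicated viable cell content.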
# [4] = target: Bile acid receptor (Homo sapiens) (UniProt Q96RI1); experiment: qHTS assay to identify small molecule antagonists of the farnesoid-X-receptor (FXR) signaling pathway (AID 743217; active = well fitted inhibition curve with a large enough effect in the signal ratio in the repeat runs, not every such curve was filed as active; inconclusive = weak or mixed curves, or effect the other way; inactive = no such curve, though single readings can be large or run the other way; the % refers to the signal ratio; note: potency is the fitted concentration of half-maximal effect); settings: HEK293T FXR-UAS-bla, beta-lactamase ratio, CDCA-stimulated, 16 h; activity change, negative = inhibition: at 62.6 µM (top of the series) unless noted
# UniProt Q96RI1, sequence (Q96RI1 whole entry, looked up): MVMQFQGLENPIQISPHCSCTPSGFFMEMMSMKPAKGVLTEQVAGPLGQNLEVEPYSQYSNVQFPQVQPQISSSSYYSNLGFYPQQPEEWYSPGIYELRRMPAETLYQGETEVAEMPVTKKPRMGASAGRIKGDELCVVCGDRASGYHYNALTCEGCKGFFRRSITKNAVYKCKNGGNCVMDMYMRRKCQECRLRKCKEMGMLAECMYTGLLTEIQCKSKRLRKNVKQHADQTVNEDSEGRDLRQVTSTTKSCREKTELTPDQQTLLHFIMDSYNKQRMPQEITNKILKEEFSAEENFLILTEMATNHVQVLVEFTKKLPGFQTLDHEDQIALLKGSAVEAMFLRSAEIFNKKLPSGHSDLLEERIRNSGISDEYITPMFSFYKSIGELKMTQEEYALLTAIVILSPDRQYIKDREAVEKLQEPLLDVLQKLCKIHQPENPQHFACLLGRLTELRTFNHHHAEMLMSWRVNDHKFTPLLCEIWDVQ
# Procedure, shortened: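 FXR-UAS-bla HEK 293T cells pre-incubated 5 h at 37 °C, then exposed to compounds with chenodeoxycholic acid (50 uM final) for 16 h at 37 °C. Beta-lactamase reporter read by LiveBLAzer B/G FRET substrate fluorescence after 2 h at room temperature.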
# [5] = qHTS assay to identify small molecule agonists of the farnesoid-X-receptor (FXR) signaling pathway - cell viability counter screen (AID 743218); settings: FXR-bla HEK293T viability, CellTiter-Glo luminescence, 16 h; viability change, negative = cytotoxic: at 62.6 µM (top of the series) unless noted; note: nearly all actives have a fitted effect of over 45% in size; note: potency is the fitted concentration of half-maximal effect
# Procedure, shortened: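 FXR-UAS-bla HEK 293T cells, plated 5 h at 37 C, were exposed to compounds for 16 h at 37 C. CellTiter-Glo was then added to the same wells as the bla readout; luminescence read after 30 min at room temperature.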
# [6] = target: Bile acid receptor (Homo sapiens) (UniProt Q96RI1); experiment: qHTS assay to identify small molecule agonists of the farnesoid-X-receptor (FXR) signaling pathway (AID 743220; active = well fitted activation curve with a large enough effect in the signal ratio in the repeat runs, not every such curve was filed as active; inconclusive = weak or mixed curves, or effect the other way; the % refers to the signal ratio; note: potency is the fitted concentration of half-maximal effect; for activation: % is set by controls: 0 for no effect and ±100 for the full control effect); settings: HEK293T FXR-UAS-bla, beta-lactamase FRET ratio, 16 h; activation: at 62.6 µM (top of the series) unless noted
# Procedure, shortened: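 Beta-lactamase reporter under UAS control in GeneBLAzer FXR HEK 293T cells (5000/well) measured with LiveBLAzer FRET substrate after 2 h at room temperature. Compound exposure lasted 16 h at 37C.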
# [7] = target: Vitamin D3 receptor (Homo sapiens) (UniProt P11473); experiment: qHTS assay to identify small molecule agonists of the vitamin D receptor (VDR) signaling pathway (AID 743222; calls by dose curve; note: potency is the fitted concentration of half-maximal effect; for activation: % is set by controls: 0 for no effect and ±100 for the full control effect); settings: HEK293T VDR-UAS-bla, beta-lactamase FRET ratio, 16 h; activation: at 63.5 µM (top of the series) unless noted
# UniProt P11473, sequence (P11473 whole entry, looked up): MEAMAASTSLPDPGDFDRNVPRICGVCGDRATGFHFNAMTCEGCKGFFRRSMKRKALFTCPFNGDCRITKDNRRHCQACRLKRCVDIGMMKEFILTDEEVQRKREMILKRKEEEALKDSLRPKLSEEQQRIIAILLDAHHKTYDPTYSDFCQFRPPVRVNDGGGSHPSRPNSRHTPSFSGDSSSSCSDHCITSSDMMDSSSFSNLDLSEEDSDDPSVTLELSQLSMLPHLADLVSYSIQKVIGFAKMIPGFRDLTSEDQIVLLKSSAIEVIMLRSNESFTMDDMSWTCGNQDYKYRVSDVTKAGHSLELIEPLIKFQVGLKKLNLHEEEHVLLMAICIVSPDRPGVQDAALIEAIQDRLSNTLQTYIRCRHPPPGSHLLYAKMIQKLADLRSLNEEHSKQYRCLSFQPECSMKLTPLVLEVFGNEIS
# Procedure, shortened: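 VDR-bla cells were plated 4 h at 37C/5% CO2, then exposed to compounds in DMSO for 16 h. After LiveBLAzer B/G FRET substrate addition and 2 h at room temperature, beta-lactamase reporter fluorescence was read.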
# [8] = target: Vitamin D3 receptor (Homo sapiens) (UniProt P11473); experiment: qHTS assay to identify small molecule antagonists of the vitamin D receptor (VDR) signaling pathway (AID 743223; active = well fitted inhibition curve with a large enough effect in the signal ratio in the repeat runs, not every such curve was filed as active; inconclusive = weak or mixed curves, or effect the other way; inactive = no such curve, though single readings can be large or run the other way; the % refers to the signal ratio; note: % is set by controls: 0 for no effect and ±100 for the full control effect); settings: VDR-UAS-bla HEK293T, beta-lactamase FRET ratio, 16 h; activity change, negative = inhibition: at 61 µM (top of the series) unless noted
# Procedure, shortened: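 Antagonist mode: compound added to VDR-bla cells alongside agonist 1alpha,25-dihydroxyvitamin D3 (3 nM final), incubation 16 h at 37C. Read-out is LiveBLAzer FRET fluorescence, 2 h at room temperature.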
# [9] = qHTS assay to identify small molecule agonists of the vitamin D receptor (VDR) signaling pathway - cell viability counter screen (AID 743224); settings: VDR-bla HEK293T viability, CellTiter-Glo luminescence, 16 h; activity change, negative = cytotoxicity: at 62.6 µM (top of the series) unless noted; note: nearly all actives have a fitted effect of over 50% in size; note: potency is the fitted concentration of half-maximal effect
# Procedure, shortened: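 VDR-bla cells were preincubated 4 h at 37C/5% CO2, then exposed to compounds for 16 h. After the 2 h room-temperature bla FRET read, CellTiter-Glo was added to the same wells and luminescence read after 30 min.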
# [10] = qHTS assay to identify small molecule antagonists of the vitamin D receptor (VDR) signaling pathway - cell viability counter screen (AID 743225); settings: VDR-bla HEK293T viability, CellTiter-Glo luminescence, 16 h; viability change, negative = cytotoxic: at 61 µM (top of the series) unless noted; note: nearly all actives have a fitted effect of over 50% in size; note: potency is the fitted concentration of half-maximal effect
# Procedure, shortened: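 Cytotoxicity counter screen read by CellTiter-Glo luminescence (30 min, room temperature) in the same wells as the VDR-bla antagonist readout. HEK 293T VDR-UAS-bla cells had 16 h at 37C with compound and 3 nM (final) 1-alpha,25-dihydroxyvitamin D3, then 2 h with FRET substrate.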
# [11] = qHTS assay for small molecule agonists of the antioxidant response element (ARE) signaling pathway (AID 743202; active = well fitted activation curve with a large enough effect in the signal ratio in the repeat runs, not every such curve was filed as active; inconclusive = weak or mixed curves, or effect the other way; inactive = no such curve, though single readings can be large or run the other way; the % refers to the signal ratio; note: potency is the fitted concentration of half-maximal effect); settings: HepG2 ARE-bla reporter, beta-lactamase FRET, 16 h; activation: at 73.3 µM (top of the series) unless noted
# Procedure, shortened: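 An ARE-responsive beta-lactamase gene stably integrated in HepG2 cells serves as reporter. After 5 h plating and 16 h compound incubation at 37 C, fluorescence of the B/G FRET substrate was measured.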
# [12] = qHTS assay for small molecule agonists of the antioxidant response element (ARE) signaling pathway - cell viability counter screen (AID 743203; calls by dose curve; note: potency is the fitted concentration of half-maximal effect; nearly all actives have a fitted effect of over 55% in size); settings: ARE-bla HepG2 viability, CellTiter-Glo luminescence, 16 h; viability change, negative = cytotoxic: at 73.3 µM (top of the series)
# Procedure, shortened: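 CellSensor ARE-bla HepG2 cells, 2,000 per well, rested 5 hrs at 37C/5% CO2, then exposed to compound in DMSO for 16 hrs; viability read as CellTiter-Glo luminescence after 30 min at room temperature, in the reporter wells.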
# [13] = qHTS assay for small molecule activators of the heat shock response signaling pathway - cell viability counter screen (AID 743209); settings: HSE-bla HeLa viability, CellTiter-Glo luminescence, 5 h; activity change, negative = cytotoxicity: at 62.6 µM (top of the series) unless noted; note: potency is the fitted concentration of half-maximal effect; nearly all actives have a fitted effect of over 50% in size
# Procedure, shortened: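 CellSensor HSE-bla HeLa cells, plated overnight at 37 C/5% CO2, were exposed to compounds in DMSO for 5 h at 37 C. Viability was then read in the same wells by CellTiter-Glo luminescence after 30 min at room temperature.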
# [14] = qHTS assay for small molecule activators of the heat shock response signaling pathway (AID 743210; active = well fitted activation curve with a large enough effect in the signal ratio in the repeat runs, with a control signal flat, not every such curve was filed as active; inconclusive = weak or mixed curves; the % refers to the signal ratio; note: potency is the fitted concentration of half-maximal effect); settings: HeLa HSE-bla reporter, beta-lactamase ratio, 5 h; activation: at 62.6 µM (top of the series)
# Procedure, shortened: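 In HSE-bla HeLa cells, 5 h compound incubation (37 C) precedes addition of LiveBLAzer B/G substrate; after 2.5 h at room temperature, fluorescence intensity indicates reporter induction.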
# [15] = target: Peroxisome proliferator-activated receptor delta (Homo sapiens) (UniProt Q03181); experiment: qHTS assay to identify small molecule antagonists of the peroxisome proliferator-activated receptor delta (PPARd) signaling pathway (AID 743215; active = well fitted inhibition curve with a large enough effect in the signal ratio in the repeat runs, not every such curve was filed as active; inconclusive = weak or mixed curves, or effect the other way; inactive = no such curve, though single readings can be large or run the other way; the % refers to the signal ratio;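 note: cells stimulated with agonist L165041 at 300 nM final during compound exposure; % is set by controls: 0 for no effect and ±100 for the full control effect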); settings: HEK293H PPARd-UAS-bla, beta-lactamase FRET ratio, antagonist, 17 h; ratio activity, negative = inhibition: at 62 µM (top of the series) unless noted
# UniProt Q03181, sequence (Q03181 whole entry, looked up): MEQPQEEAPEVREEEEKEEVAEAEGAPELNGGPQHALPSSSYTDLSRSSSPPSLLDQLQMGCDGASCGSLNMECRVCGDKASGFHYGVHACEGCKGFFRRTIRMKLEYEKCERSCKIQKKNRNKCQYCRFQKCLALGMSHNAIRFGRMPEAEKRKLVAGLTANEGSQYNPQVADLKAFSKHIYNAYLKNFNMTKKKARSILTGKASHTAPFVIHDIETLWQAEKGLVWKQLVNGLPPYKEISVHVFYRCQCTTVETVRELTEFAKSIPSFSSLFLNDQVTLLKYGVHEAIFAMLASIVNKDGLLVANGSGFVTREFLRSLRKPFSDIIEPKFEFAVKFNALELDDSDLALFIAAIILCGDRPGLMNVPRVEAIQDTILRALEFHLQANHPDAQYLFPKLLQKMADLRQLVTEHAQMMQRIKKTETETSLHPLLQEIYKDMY
# Procedure, shortened: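 PPARd UAS-bla HEK293H cells were pre-incubated 5 h at 37 C, then given test compounds in DMSO plus agonist L165041 (300 nM final). After 17 h at 37 C, beta-lactamase FRET substrate was added; fluorescence read after 2 h at room temperature.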
# [16] = qHTS assay to identify small molecule antagonists of the farnesoid-X-receptor (FXR) signaling pathway - cell viability counter screen (AID 743221; active = well fitted cell-killing curve with a large enough effect in the repeat runs, not every such curve was filed as active; inconclusive = weak or mixed curves, or effect the other way; inactive = no such curve, though single readings can be large or run the other way); settings: FXR-bla HEK293T viability, CellTiter-Glo luminescence, 16 h; activity change, negative = cytotoxicity: at 62.6 µM (top of the series)
# Procedure, shortened: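 Cytotoxicity counter screen run in the FXR-bla reporter wells: HEK 293T cells exposed to compound with 50 uM (final) chenodeoxycholic acid for 16 h, 37 C, then viability measured by CellTiter-Glo luminescence after 30 min, room temperature.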
# Tags give direction and shape of the fitted curve or compound fluorescence and quenching.
structure (smiles),measurement,setting,value
CN(C)CCCN1c2ccccc2Sc2ccc(Cl)cc21,Potency,[1],active: 38.9 µM and active: 26.6 µM
same,Potency,[2],active: 11 µM and active: 23.7 µM
same,Potency,[3],active: 13.8 µM and active: 18.8 µM
same,Potency,[4],active: 49 µM and active: 26.6 µM
same,Potency,[5],active: 21.9 µM and active: 26.6 µM
same,activation,[6],inconclusive: -0.974%
same,Potency,[7],inconclusive: 21.9 µM [single point]
same,activation,[7],inconclusive: -24.3%
same,"activity change, negative = inhibition",[8],inconclusive: -33.3% and inconclusive: -55.3%
same,Potency,[9],"inconclusive: 10.6 µM [cytotoxic, partial curve]"
same,Potency,[10],active: 24.5 µM
Cc1cc(O)c(C(C)C)cc1Cl,Potency,[11],inconclusive: 68.6 µM [single point] and inactive
same,Potency,[12],inconclusive: 68.6 µM [cytotoxic]
same,Potency,[13],"inconclusive: 54.9 µM [cytotoxic, single point]"
same,Potency,[14],inconclusive: 61.6 µM
same,Potency,[3],"inconclusive: 54.9 µM [cytotoxic, single point]"
same,"activity change, negative = inhibition",[8],inconclusive: -7.74%
same,Potency,[10],"inconclusive: 61.6 µM [cytotoxic, single point] and inactive"
O=C1CCCCCCCCCCCCCC1,Potency,[13],"inconclusive: 54.9 µM [cytotoxic, single point]"
same,Potency,[15],inactive
same,Potency,[5],inactive
same,Potency,[9],inactive
C=CCCCCCCC=C,activation,[11],inconclusive: 23.4%
same,Potency,[14],inconclusive: 57.2 µM
same,Potency,[2],"inconclusive: 55.1 µM [cytotoxic, single point]"
same,Potency,[3],"inconclusive: 55.1 µM [cytotoxic, single point]"
same,Potency,[4],inconclusive: 55.1 µM [single point]
same,Potency,[5],inconclusive: 61.8 µM [cytotoxic]
same,Potency,[6],"inconclusive: 61.8 µM [partial curve, poor fit]"
same,Potency,[16],"inconclusive: 55.1 µM [falling, partial curve]"
Cc1ccc(S(=O)(=O)NC(=O)NN2CCCCCC2)cc1,Potency,[1],"inconclusive: 17.4 nM [rising, full curve, poor fit]"
same,Potency,[13],"inconclusive: 0.0024 µM [cytotoxic, full curve]"
same,Potency,[5],"inconclusive: 13.3 µM [rising, single point]"
O=C(O)c1ccc2c(c1)C(=O)OC2=O,Potency,[1],"inconclusive: 38900 nM [rising, partial curve, poor fit]"
same,Potency,[3],"inconclusive: 55.9 µM [cytotoxic, single point]"
same,Potency,[5],"inconclusive: 0.352 µM [rising, partial curve, poor fit]"
